The other results are listed elsewhere or left out. The list includes weakly bound sequences.

The values below come from article PMC12820563.

In this assay the target is T1, MBP-FoxP3dN (UniProt Q99JB6).
T1 sequence: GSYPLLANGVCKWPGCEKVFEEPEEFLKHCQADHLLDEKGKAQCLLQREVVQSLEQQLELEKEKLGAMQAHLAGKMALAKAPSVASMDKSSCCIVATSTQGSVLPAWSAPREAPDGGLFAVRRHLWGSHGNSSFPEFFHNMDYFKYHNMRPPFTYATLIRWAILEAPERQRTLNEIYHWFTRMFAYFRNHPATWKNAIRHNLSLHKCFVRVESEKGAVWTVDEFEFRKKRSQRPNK
The experiment in a line: PD-seq (MBP pull-down with sequencing). The note with it: 20 mM Tris-HCl pH 7.5, 100 mM NaCl, 1.5 mM MgCl2, 0.4 uM protein, 0.1 uM dsDNA library, 30 min, room temperature, amylose pull-down; high values mean tight binding; double strand, one strand shown.
Turning to “GATGATTGTTCTCCCAGCTGATGAATTGCTGAACTCGAGTAAACAAATTTTCCTAATCTTTCTGTTCAAGCGCCATCTAC”, the binding signal (RPM ratio (pull-down/input)) stood at 0.42.
The figure for “GATGATTGTTCTCCCAGCTGATGAATTGAGATTATCGAGTAAACAAATTTTCCTAATCTTTCTGTTCAAGCGCCATCTAC” is 0.888.
The same measure for “GATGATTGTTCTCCCAGCTGATGAATTCTTGATGTCGAGTAAACAAATTTTCCTAATCTTTCTGTTCAAGCGCCATCTAC”: 0.416; for “GATGATTGTTCTCCCAGCTGATGAATTGTCCCTATCGAGTAAACAAATTTTCCTAATCTTTCTGTTCAAGCGCCATCTAC”: 0.436.
On to “GATGATTGTTCTCCCAGCTGATGAATTAGCTGAGTCGAGTAAACAAATTTTCCTAATCTTTCTGTTCAAGCGCCATCTAC”, for which the binding signal (RPM ratio (pull-down/input)) was 0.268.
The figure for “GATGATTGTTCTCCCAGCTGATGAATTTGCGAAGTCGAGTAAACAAATTTTCCTAATCTTTCTGTTCAAGCGCCATCTAC” is 0.311; for “GATGATTGTTCTCCCAGCTGATGAATTGGTCTAATCGAGTAAACAAATTTTCCTAATCTTTCTGTTCAAGCGCCATCTAC” it is 0.423; for “GATGATTGTTCTCCCAGCTGATGAATTTAGAGAATCGAGTAAACAAATTTTCCTAATCTTTCTGTTCAAGCGCCATCTAC” it is 0.279.
The figure for “GATGATTGTTCTCCCAGCTGATGAATTTAACCGTTCGAGTAAACAAATTTTCCTAATCTTTCTGTTCAAGCGCCATCTAC” is 0.312; for “GATGATTGTTCTCCCAGCTGATGAATTCGCGAGATCGAGTAAACAAATTTTCCTAATCTTTCTGTTCAAGCGCCATCTAC” it is 0.318; for “GATGATTGTTCTCCCAGCTGATGAATTATTCATGTCGAGTAAACAAATTTTCCTAATCTTTCTGTTCAAGCGCCATCTAC” it is 0.412.
As to “GATGATTGTTCTCCCAGCTGATGAATTCTGTGAATCGAGTAAACAAATTTTCCTAATCTTTCTGTTCAAGCGCCATCTAC”, the binding signal (RPM ratio (pull-down/input)) was determined as 0.477.
The figure for “GATGATTGTTCTCCCAGCTGATGAATTATCCATATCGAGTAAACAAATTTTCCTAATCTTTCTGTTCAAGCGCCATCTAC” is 0.316.
The same measure for “GATGATTGTTCTCCCAGCTGATGAATTCGCACCATCGAGTAAACAAATTTTCCTAATCTTTCTGTTCAAGCGCCATCTAC”: 0.563; for “GATGATTGTTCTCCCAGCTGATGAATTGCAAATGTCGAGTAAACAAATTTTCCTAATCTTTCTGTTCAAGCGCCATCTAC”: 0.803; for “GATGATTGTTCTCCCAGCTGATGAATTTCTCCGATCGAGTAAACAAATTTTCCTAATCTTTCTGTTCAAGCGCCATCTAC”: 0.19.
The same measure for “GATGATTGTTCTCCCAGCTGATGAATTTATACGGTCGAGTAAACAAATTTTCCTAATCTTTCTGTTCAAGCGCCATCTAC”: 0.494.
Consider “GATGATTGTTCTCCCAGCTGATGAATTCCTAGCGTCGAGTAAACAAATTTTCCTAATCTTTCTGTTCAAGCGCCATCTAC”, for which the binding signal (RPM ratio (pull-down/input)) was 0.41.
The figure for “GATGATTGTTCTCCCAGCTGATGAATTAGACATATCGAGTAAACAAATTTTCCTAATCTTTCTGTTCAAGCGCCATCTAC” is 0.566; for “GATGATTGTTCTCCCAGCTGATGAATTAGCAACCTCGAGTAAACAAATTTTCCTAATCTTTCTGTTCAAGCGCCATCTAC” it is 1.78; for “GATGATTGTTCTCCCAGCTGATGAATTTTGGCCTTCGAGTAAACAAATTTTCCTAATCTTTCTGTTCAAGCGCCATCTAC” it is 2.06.
For the sequence “GATGATTGTTCTCCCAGCTGATGAATTCTGATCCTCGAGTAAACAAATTTTCCTAATCTTTCTGTTCAAGCGCCATCTAC”, the binding signal (RPM ratio (pull-down/input)) came to 0.399.
On to “GATGATTGTTCTCCCAGCTGATGAATTTCGTATATCGAGTAAACAAATTTTCCTAATCTTTCTGTTCAAGCGCCATCTAC”, for which the binding signal (RPM ratio (pull-down/input)) is 2.22.
The same measure for “GATGATTGTTCTCCCAGCTGATGAATTGTCGTGCTCGAGTAAACAAATTTTCCTAATCTTTCTGTTCAAGCGCCATCTAC”: 0.657.
The same measure for “GATGATTGTTCTCCCAGCTGATGAATTCGATTACTCGAGTAAACAAATTTTCCTAATCTTTCTGTTCAAGCGCCATCTAC”: 3.98.
As for “GATGATTGTTCTCCCAGCTGATGAATTATCCTTCTCGAGTAAACAAATTTTCCTAATCTTTCTGTTCAAGCGCCATCTAC”, the binding signal (RPM ratio (pull-down/input)) was 0.295.
The figure for “GATGATTGTTCTCCCAGCTGATGAATTTACGATATCGAGTAAACAAATTTTCCTAATCTTTCTGTTCAAGCGCCATCTAC” is 0.664; for “GATGATTGTTCTCCCAGCTGATGAATTACTAATGTCGAGTAAACAAATTTTCCTAATCTTTCTGTTCAAGCGCCATCTAC” it is 0.473; for “GATGATTGTTCTCCCAGCTGATGAATTGCAATGTTCGAGTAAACAAATTTTCCTAATCTTTCTGTTCAAGCGCCATCTAC” it is 2.05.
Turning to “GATGATTGTTCTCCCAGCTGATGAATTCGTATCGTCGAGTAAACAAATTTTCCTAATCTTTCTGTTCAAGCGCCATCTAC”, the binding signal (RPM ratio (pull-down/input)) stood at 1.53.
The figure for “GATGATTGTTCTCCCAGCTGATGAATTACACTCATCGAGTAAACAAATTTTCCTAATCTTTCTGTTCAAGCGCCATCTAC” is 0.879.
The same measure for “GATGATTGTTCTCCCAGCTGATGAATTCGGCCATTCGAGTAAACAAATTTTCCTAATCTTTCTGTTCAAGCGCCATCTAC”: 3.92.
